Screen size: about 310,000 compounds; about 14,000 (4.5%) showed an effect of 50% or more. Effects have a minus sign here. The list shows a part of the results.
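Further: peak tail current of the secondary pulse compared with the same well before compound.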

In this experiment the target is human ether-à-go-go-related gene (hERG) potassium channel (human, UniProt Q12809). The experiment can be described thus: primary screen, population patch clamp on CHO cells stably expressing hERG.
Sequence of human ether-à-go-go-related gene (hERG) potassium channel (Q12809 whole entry, looked up): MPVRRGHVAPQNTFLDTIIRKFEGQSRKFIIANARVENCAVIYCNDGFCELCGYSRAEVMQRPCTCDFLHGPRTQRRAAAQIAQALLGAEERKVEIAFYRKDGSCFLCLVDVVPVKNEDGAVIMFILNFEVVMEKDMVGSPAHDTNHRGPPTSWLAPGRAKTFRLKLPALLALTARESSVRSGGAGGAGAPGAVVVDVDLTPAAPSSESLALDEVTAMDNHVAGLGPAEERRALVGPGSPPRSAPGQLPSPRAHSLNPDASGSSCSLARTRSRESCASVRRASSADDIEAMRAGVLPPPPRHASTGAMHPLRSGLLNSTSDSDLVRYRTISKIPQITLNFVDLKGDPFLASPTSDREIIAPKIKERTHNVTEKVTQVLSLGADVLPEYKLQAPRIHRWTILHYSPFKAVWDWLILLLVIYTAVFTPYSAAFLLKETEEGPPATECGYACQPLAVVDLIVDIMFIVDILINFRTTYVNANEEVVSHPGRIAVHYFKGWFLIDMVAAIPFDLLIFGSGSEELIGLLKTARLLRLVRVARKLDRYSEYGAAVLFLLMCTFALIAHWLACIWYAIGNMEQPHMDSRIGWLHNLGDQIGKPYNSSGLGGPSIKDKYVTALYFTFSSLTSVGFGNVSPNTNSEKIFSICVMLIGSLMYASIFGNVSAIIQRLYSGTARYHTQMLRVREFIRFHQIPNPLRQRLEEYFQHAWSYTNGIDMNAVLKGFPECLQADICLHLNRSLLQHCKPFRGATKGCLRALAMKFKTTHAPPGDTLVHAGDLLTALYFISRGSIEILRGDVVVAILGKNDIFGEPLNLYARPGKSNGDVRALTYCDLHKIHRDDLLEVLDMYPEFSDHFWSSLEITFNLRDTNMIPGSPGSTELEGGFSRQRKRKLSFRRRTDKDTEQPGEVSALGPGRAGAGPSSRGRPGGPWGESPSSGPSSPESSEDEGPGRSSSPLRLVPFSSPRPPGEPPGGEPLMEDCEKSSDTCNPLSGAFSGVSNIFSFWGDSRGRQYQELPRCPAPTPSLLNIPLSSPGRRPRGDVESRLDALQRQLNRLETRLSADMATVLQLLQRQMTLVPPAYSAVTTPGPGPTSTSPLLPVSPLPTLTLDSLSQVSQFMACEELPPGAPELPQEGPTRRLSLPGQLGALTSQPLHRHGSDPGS
`Cc1ccccc1C1CC(c2ccccc2OC(F)F)Nc2ncnn21` (centres unmarked): the “hERG current change (%, negative = inhibition) at 10uM” value is listed as -13.2%.

In the case of `CC(=O)Nc1cc(C(N)=O)c(Cl)cc1Cl`, the “hERG current change (%, negative = inhibition) at 10uM” value amounted to 3.42%.

Consider `COC(=O)C(C(=O)OC)C(C[N+](=O)[O-])c1ccc(OC)cc1` (centres unmarked), for which the “hERG current change (%, negative = inhibition) at 10uM” value is reported as -6.91%.

On to `Cc1cc(C)c(S(=O)(=O)N2CCN(S(=O)(=O)N3CCCCCC3)CC2)c(C)c1`, for which the “hERG current change (%, negative = inhibition) at 10uM” value is listed as 4.64%.

As for `Cc1cc(C(=O)OCCO)c(C#N)c(N)n1`, the “hERG current change (%, negative = inhibition) at 10uM” value was determined as 21%.

As for `Cc1onc(-c2c(Cl)cccc2Cl)c1C(=O)Nc1ccc2c(c1)OCCO2`, the “hERG current change (%, negative = inhibition) at 10uM” value is recorded as 0.47%.

As for `Cc1ccc(S(=O)(=O)N/N=C\c2ccc3c(c2)OCO3)cc1C`, the “hERG current change (%, negative = inhibition) at 10uM” value is listed as -11.8%.

As for `O=C(c1ccncc1)N1c2ccccc2Sc2ccccc21`, the “hERG current change (%, negative = inhibition) at 10uM” value was determined as 18.2%.

In the case of `CSc1ccccc1OCc1cc(C(=O)N(C)CCc2c(C)n[nH]c2C)no1`, the “hERG current change (%, negative = inhibition) at 10uM” value was -6.07%.

Turning to `Cc1ccccc1COC(=O)c1cc([N+](=O)[O-])ccc1N1CCOCC1`, the “hERG current change (%, negative = inhibition) at 10uM” value is given as -18.8%.

`Cc1sc(NC(=O)Cn2c(=O)oc3ccccc32)nc1-c1ccc(Cl)cc1`: the “hERG current change (%, negative = inhibition) at 10uM” value is 9.72%.

With `CC1CCC(NC(=O)C2c3ccccc3C(=O)N2CCCN2CCOCC2)CC1` (centres unmarked), the “hERG current change (%, negative = inhibition) at 10uM” value is -15.8%.

For `Cl.c1ccc(-c2cc(-c3ccncc3)nc3ccc4ccccc4c23)cc1`, the “hERG current change (%, negative = inhibition) at 10uM” value turned out to be 3.52%.

With `Cc1ccn2cc(-c3ccc(NC(=O)c4ccco4)cc3)nc2c1`, the “hERG current change (%, negative = inhibition) at 10uM” value is on record as -21%.

In the case of `Cc1c(OCC(=O)NCCCN2CCOCC2)ccc2c3c(c(=O)oc12)CCC3`, the “hERG current change (%, negative = inhibition) at 10uM” value worked out at 6.71%.

In the case of `COc1ccc(OCC(=O)N/N=C/c2ccc(O[C@@H]3O[C@H](CO)[C@@H](O)[C@H](O)[C@H]3O)cc2)cc1`, the “hERG current change (%, negative = inhibition) at 10uM” value was 12.8%.

On to `Cc1ccc(-c2nc(CS(=O)(=O)CC(=O)N3CCOCC3)c(C)o2)cc1`, for which the “hERG current change (%, negative = inhibition) at 10uM” value turned out to be 15.3%.

With `O=C(CNC(=O)c1ccccc1F)NCCN1C(=O)S/C(=C\c2ccccc2Cl)C1=O`, the “hERG current change (%, negative = inhibition) at 10uM” value is on record as 2.23%.

On to `O=C(Cc1ccc2c(c1)OCCO2)N1CCN(S(=O)(=O)c2cccc(C(F)(F)F)c2)CC1`, for which the “hERG current change (%, negative = inhibition) at 10uM” value is -7.76%.

Turning to `CC(Oc1cccc(Cl)c1)C(=O)N1CCN(c2ncccn2)CC1` (centres unmarked), the “hERG current change (%, negative = inhibition) at 10uM” value is -28.1%.

With `O=C(NCC(=O)N1CCN(S(=O)(=O)c2ccccc2F)CC1)c1ccc2c(c1)OCO2`, the “hERG current change (%, negative = inhibition) at 10uM” value is 9.59%.

Take `O=C(CSc1ncn(-c2ccccc2)n1)Nc1ccc2c(c1)OCCO2`: the “hERG current change (%, negative = inhibition) at 10uM” value is 15.9%.

Regarding `COC(C(=O)Nc1ccnn1C1CCN(Cc2nccs2)CC1)c1ccccc1` (centres unmarked), the “hERG current change (%, negative = inhibition) at 10uM” value is given as 0.847%.

In the case of `Cn1ccc(NC(=O)Nc2cccc([N+](=O)[O-])c2)n1`, the “hERG current change (%, negative = inhibition) at 10uM” value is on record as -2.02%.

Consider `N#Cc1c(NC(=O)COC(=O)C2CC3C=CC2C3)oc(-c2ccccc2)c1-c1ccccc1` (centres unmarked), for which the “hERG current change (%, negative = inhibition) at 10uM” value is 11.6%.

With `Cc1ccc(F)cc1NC(=O)CSCc1c(C)noc1C`, the “hERG current change (%, negative = inhibition) at 10uM” value was -3.15%.

With `CCCc1c(C(=O)N/N=C(/C)c2ccncc2)nnn1-c1nonc1N`, the “hERG current change (%, negative = inhibition) at 10uM” value turned out to be 0.629%.

As to `CC(C)c1cc(CNC(=O)C2CCC(=O)N(Cc3ccccc3F)C2)on1` (centres unmarked), the “hERG current change (%, negative = inhibition) at 10uM” value is 15.2%.

Take `CCOCCCNC(=O)c1ccc2c(=O)n(Cc3ccc4c(c3)OCO4)c(=S)[nH]c2c1`: the “hERG current change (%, negative = inhibition) at 10uM” value came to 29.8%.

For `O=C(O)CCN(CCC(=O)O)S(=O)(=O)c1ccccc1`, the “hERG current change (%, negative = inhibition) at 10uM” value is 0.0188%.

Take `COc1cc(/C=N/NC(=O)c2ccncc2)ccc1OCC(=O)Nc1cccc([N+](=O)[O-])c1`: the “hERG current change (%, negative = inhibition) at 10uM” value came out at 25.3%.

As for `CSC(=S)N/N=C(\C)c1ccccc1`, the “hERG current change (%, negative = inhibition) at 10uM” value is recorded as 14.4%.

As to `CCOc1ccc(-c2nc(CN3CCCCC3CCn3cccn3)c(C)o2)cc1` (centres unmarked), the “hERG current change (%, negative = inhibition) at 10uM” value was -71.5%.

With `Cc1cc(NC(=O)C(C)Oc2ccccc2)no1` (centres unmarked), the “hERG current change (%, negative = inhibition) at 10uM” value is 11.1%.

`Clc1ccc(-n2nnnc2SCc2cn3ccccc3n2)cc1`: the “hERG current change (%, negative = inhibition) at 10uM” value is -24.8%.

For the molecule `CCOC(=O)c1ccc(NS(=O)(=O)c2cc(C)ccc2OC)cc1`, the “hERG current change (%, negative = inhibition) at 10uM” value is listed as -9.08%.

On to `CCc1cccc(OCC(=O)Nc2ccccc2N2CCCC2)c1`, for which the “hERG current change (%, negative = inhibition) at 10uM” value is on record as -8.67%.

`CC1CC(N(C(=O)c2ccco2)c2ccccc2)c2ccccc2N1` (centres unmarked): the “hERG current change (%, negative = inhibition) at 10uM” value is listed as -33.6%.

Take `Cc1cn2c(=O)c(C(=O)NCc3ccc4c(c3)OCO4)cnc2s1`: the “hERG current change (%, negative = inhibition) at 10uM” value is given as 7.3%.

On to `O=C(/C=C/c1ccco1)N1CCN(S(=O)(=O)/C=C/c2ccccc2)CC1`, for which the “hERG current change (%, negative = inhibition) at 10uM” value is recorded as -45%.

For the molecule `CN(c1ccc(C(=O)N2CCCCCC2)cc1)S(=O)(=O)c1ccc(Cl)cc1`, the “hERG current change (%, negative = inhibition) at 10uM” value was -63%.

With `COCCC(=O)Nc1ccc2c(c1)CN(C(=O)CCOC)CC2`, the “hERG current change (%, negative = inhibition) at 10uM” value is given as 22.9%.

For the molecule `Cc1ccc(NC(=O)Cc2nc(COC(=O)C(C)NS(=O)(=O)c3ccc(C)cc3)cs2)cc1` (centres unmarked), the “hERG current change (%, negative = inhibition) at 10uM” value was -23.6%.

For `OC(COc1ccccc1)CN1CCOCC1` (centres unmarked), the “hERG current change (%, negative = inhibition) at 10uM” value is 9.83%.

Consider `O=C(O)CSc1ncnc2nc[nH]c12`, for which the “hERG current change (%, negative = inhibition) at 10uM” value was found to be 9.28%.

For the molecule `CCN(C(=O)CSc1nnc(C)n1-c1ccccc1)C1CCS(=O)(=O)C1` (centres unmarked), the “hERG current change (%, negative = inhibition) at 10uM” value is listed as 12.6%.

Turning to `COc1ccc(NS(=O)(=O)c2ccc(OC)c(NC(=O)CCC3CCCC3)c2)cc1`, the “hERG current change (%, negative = inhibition) at 10uM” value was 4.04%.

On to `CC1CCCC(C)N1CC(O)COCC1COc2ccccc2O1.Cl` (centres unmarked), for which the “hERG current change (%, negative = inhibition) at 10uM” value was -15.8%.

Turning to `CCOC(=O)N1CCN(C(=O)COC(=O)Cc2ccc(OC)cc2)CC1`, the “hERG current change (%, negative = inhibition) at 10uM” value is 14.4%.

Consider `O=C(O)COc1c(-c2ccccc2)oc2ccccc2c1=O`, for which the “hERG current change (%, negative = inhibition) at 10uM” value was found to be 8.96%.

`O=C(Nc1nccs1)C1CC2CCC1C2` (centres unmarked): the “hERG current change (%, negative = inhibition) at 10uM” value came to 6.6%.

As to `CCC(C)[C@H](NC(=O)OC(C)(C)C)C(=O)N/N=C/c1ccc2nccnc2c1` (some centres unmarked), the “hERG current change (%, negative = inhibition) at 10uM” value is -13.8%.

`Cn1c(NCc2ccccc2)nc2c1c(=O)n(Cc1ccc(Br)cc1)c(=O)n2C`: the “hERG current change (%, negative = inhibition) at 10uM” value is reported as 4.56%.

In the case of `Cc1cc(Br)ccc1NC(=O)CN(C)C(=O)CSCc1ccccc1`, the “hERG current change (%, negative = inhibition) at 10uM” value is reported as -5.47%.

For the molecule `O=C(Nc1nncs1)c1ccc(S(=O)(=O)c2ccccc2)cc1`, the “hERG current change (%, negative = inhibition) at 10uM” value worked out at 11.4%.

On to `O=S(=O)(CCN1C=CC(C(F)(F)F)=NCC1)c1ccc(F)cc1`, for which the “hERG current change (%, negative = inhibition) at 10uM” value was -1.83%.

The record behind these values is article PMC4336329 (PLoS ONE, 2015).
